In the BET-seq Pho4 binding data (Le et al. 2018):
The other results are listed elsewhere or left out. The energies were worked out here from pooled read counts, against the library average; single values are noisy.

Biological target: T1, Pho4 (S. cerevisiae) (UniProt P07270)
T1 sequence: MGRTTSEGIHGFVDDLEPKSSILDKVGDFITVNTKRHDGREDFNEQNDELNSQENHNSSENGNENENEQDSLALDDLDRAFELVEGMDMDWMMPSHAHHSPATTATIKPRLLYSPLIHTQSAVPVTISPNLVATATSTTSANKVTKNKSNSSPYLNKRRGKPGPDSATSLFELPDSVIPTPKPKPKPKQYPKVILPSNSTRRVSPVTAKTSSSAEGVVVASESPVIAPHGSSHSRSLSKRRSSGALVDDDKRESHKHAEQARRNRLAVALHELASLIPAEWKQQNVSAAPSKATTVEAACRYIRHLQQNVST
Test: relative binding free energy (BET-seq); higher = weaker binding
Settings: reference: library average

Relative binding free energy, -0.07 kcal/mol:
GTGAACACGTGGGGGG

Relative binding free energy, 0.27 kcal/mol:
TCGGGCACGTGAGTTT, GTCTTCACGTGGTGAT

Relative binding free energy, -0.18 kcal/mol:
ATTGGCACGTGGCGCG

Relative binding free energy, -0.23 kcal/mol:
ATACGCACGTGGCGGT

Relative binding free energy, -0.21 kcal/mol:
ATTTGCACGTGTTTCA, ATGTACACGTGGGTGG

Relative binding free energy, -0.03 kcal/mol:
TCTTACACGTGGTAGG, ATCGTCACGTGGGTTT, ATGAACACGTGTGGTG

Relative binding free energy, 0.01 kcal/mol:
GACGTCACGTGGGTGC, ATTCGCACGTGCGTTG, GAGAGCACGTGGTAAT, TAGGTCACGTGGTGCG, TGCGACACGTGGGAGG, CTGGTCACGTGGGGGA

Relative binding free energy, 0.33 kcal/mol:
AATTTCACGTGGATCT, TCTGTCACGTGATGTG

Relative binding free energy, 0.15 kcal/mol:
TACAGCACGTGAGTTT, GGTGTCACGTGTTCAT, TGTCACACGTGTTGCT

Relative binding free energy, -0.01 kcal/mol:
AAAGTCACGTGGGCGT, TTGGACACGTGCGAGT, ATTGGCACGTGATTCA, TAAATCACGTGGGGCA, TTACGCACGTGTGGTC, GATTGCACGTGTCGGT, TAGGTCACGTGCCGTT, TCAGTCACGTGGGGAG, GGCGTCACGTGGTGAA

Relative binding free energy, 0.31 kcal/mol:
GTTTTCACGTGGATCA, CTTTTCACGTGTCGGT

Relative binding free energy, 0.09 kcal/mol:
ATATGCACGTGAGGGC, AAAATCACGTGGGTCG, TGAAACACGTGGATAT, GTTCACACGTGTTATT, GGTGACACGTGTTTCG

Relative binding free energy, -0.16 kcal/mol:
CTGGGCACGTGTGTGA, CTATGCACGTGGGATG, CGTTCCACGTGGGGGT

Relative binding free energy, 0.05 kcal/mol:
ATACTCACGTGGGGGT, GGTGTCACGTGCTTAT, GAAGACACGTGGTGGC, GGTTGCACGTGCTTTT, GGTAGCACGTGTTATG, TTGGTCACGTGTATAT, GTAGACACGTGGAGTT, AGATACACGTGTCTGT

Relative binding free energy, 0.29 kcal/mol:
AGTCTCACGTGATGCT, GGTATCACGTGTGATG

Relative binding free energy, 0.1 kcal/mol:
ATGGGCACGTGACGTG, GGATGCACGTGGAGAA, ATCTTCACGTGTTTAT, TGGAACACGTGGATAG, CGTGTCACGTGTGGAG

Relative binding free energy, 0.18 kcal/mol:
CGGTTCACGTGGTTGG, TGATGCACGTGGAGAA, CTTGACACGTGAGGTG, TGATGCACGTGAAGAT, TAGGTCACGTGCATTA, AATCTCACGTGGTTTA, TATTACACGTGTAATA, CTGTTCACGTGGCGGT

Relative binding free energy, -0.08 kcal/mol:
GTTGTCACGTGGGTAA, AGTCGCACGTGGTATA, ATTGCCACGTGTTTGG, AGTGTCACGTGGGACT, TTGTGCACGTGTCTGT, GGTGACACGTGGGTAT, GTGGGCACGTGGGCGG, AGTGACACGTGGAAGT, TTCAGCACGTGTAGGT

Relative binding free energy, 0.45 kcal/mol:
GGTTTCACGTGAGCTT

Relative binding free energy, 0.11 kcal/mol:
ATTATCACGTGTTGGT, GGGATCACGTGGAGTA, AATGTCACGTGTGGTT, AAGATCACGTGTATTG

Relative binding free energy, -0.2 kcal/mol:
TTTAGCACGTGGTGTC

Relative binding free energy, -0.09 kcal/mol:
TCTGACACGTGGTAGT, ATGAGCACGTGTGGAG, GGCAGCACGTGGGACG, ATTAGCACGTGCAGTG, GCGGACACGTGGGTGA, TCATGCACGTGTCGGG

Relative binding free energy, -0.28 kcal/mol:
AATGCCACGTGGGGGT

Relative binding free energy, 0.06 kcal/mol:
ATGGACACGTGCGGTA, TGTTCCACGTGGAGTG

Relative binding free energy, -0.12 kcal/mol:
AAGTGCACGTGGCTGG

Relative binding free energy, -0.05 kcal/mol:
ATTAGCACGTGCGGAT, AGTAACACGTGTCTGT, GGAACCACGTGGCGGG, GTAGTCACGTGGGGAT, ATGATCACGTGGATGG

Relative binding free energy, 0.21 kcal/mol:
TCGCTCACGTGTTTTG, ATATTCACGTGATCGT, AGCTTCACGTGAGTGT, CATTACACGTGTGGTA, GGGATCACGTGGTTCT

Relative binding free energy, -0.19 kcal/mol:
TGGCGCACGTGGCTGT, CGGAGCACGTGGGGTC, CTTAGCACGTGGGCTG

Relative binding free energy, -0.02 kcal/mol:
GTTGACACGTGTTATA

Relative binding free energy, 0.19 kcal/mol:
TGTCTCACGTGGTACT, TAGCTCACGTGGTTGT, GTTAGCACGTGATGAA, TTAGACACGTGAGGGT

Relative binding free energy, 0.43 kcal/mol:
GAGTTCACGTGTGTGA

Relative binding free energy, 0.41 kcal/mol:
TTGCTCACGTGATGAT

Relative binding free energy, 0.02 kcal/mol:
ATTTACACGTGGGCAG, GTGATCACGTGTCTTT, AGTAGCACGTGATGTA, TTTTGCACGTGTTATG

Relative binding free energy, 0.4 kcal/mol:
TAGTTCACGTGTGGTG

Relative binding free energy, 0.5 kcal/mol:
GATTTCACGTGATTAG

Relative binding free energy, 0.38 kcal/mol:
ATCGTCACGTGTAGAT

Relative binding free energy, 0.04 kcal/mol:
ATAGTCACGTGTCGTG

Relative binding free energy, -0.06 kcal/mol:
GGAGCCACGTGGTGGG, TGAGTCACGTGGGTGC, TTTAACACGTGCGGGC, ATGGGCACGTGATAAT, GTCGGCACGTGTTAGA, ATAGGCACGTGTCTGT

Relative binding free energy, 0.25 kcal/mol:
GGTTGCACGTGTGTTA, TATCACACGTGAGTGG

Relative binding free energy, 0.35 kcal/mol:
GACGTCACGTGGATGG, TGTTACACGTGGAACT, GTGTTCACGTGGAGGA

Relative binding free energy, 0 kcal/mol:
AAAGACACGTGTGTTG, ATTGACACGTGGACGG, ATGATCACGTGCTGTT, TGATACACGTGTTATT, TATTCCACGTGGCGTG

Relative binding free energy, 0.36 kcal/mol:
TGGCTCACGTGATAGT, TGCGTCACGTGAGTAT

Relative binding free energy, 0.08 kcal/mol:
TAGTACACGTGGATGT, TTGTGCACGTGGATTG, TCGAGCACGTGAGGTG

Relative binding free energy, 0.16 kcal/mol:
TTTAGCACGTGTAAGA, TTTGGCACGTGAGTGG, ATCATCACGTGTGGAT, ATCGTCACGTGAAGTG, TGTTACACGTGTAGGC, TACATCACGTGGTTGG

Relative binding free energy, -0.29 kcal/mol:
TAGGGCACGTGGGGGA

Relative binding free energy, 0.39 kcal/mol:
ATATTCACGTGGAATT, TGTTTCACGTGTGCTG, TTGTGCACGTGAAATT, GGGATCACGTGAGTAA, TATTTCACGTGTAATT

Relative binding free energy, 0.2 kcal/mol:
TTTTGCACGTGTGGAG, TCATACACGTGTTGTG, TTGGTCACGTGTTGAC, TACGGCACGTGAAGTG, GGGCACACGTGGAAGG, AGGGACACGTGAAGGT, TGGTACACGTGAGAGC

Relative binding free energy, -0.11 kcal/mol:
TTGGGCACGTGCAGCT, GTGCGCACGTGTTATA, GTTAGCACGTGGTATA

Relative binding free energy, 0.28 kcal/mol:
GCATTCACGTGGGTAG, CTGTACACGTGGAAGG

Relative binding free energy, 0.23 kcal/mol:
TTATTCACGTGTTGTT, TAGGTCACGTGTTATT, GGTTGCACGTGTTCTG, TTTGACACGTGAGATG, TTATGCACGTGAGGCA

Relative binding free energy, -0.15 kcal/mol:
TGGCGCACGTGGGCTG

Relative binding free energy, 0.22 kcal/mol:
GGCCACACGTGTGTTG, TTTCTCACGTGTTAGT, CCTTTCACGTGTTATT, TATTGCACGTGAGGAC, CGGTTCACGTGAGTGG

Relative binding free energy, 0.07 kcal/mol:
AGGATCACGTGGTAGC, ACTGTCACGTGGTAAG, TGTCTCACGTGGGCTA, GCTTTCACGTGGGAGG, GGTTGCACGTGGACGC, GCTTGCACGTGTAGTG

Relative binding free energy, -0.3 kcal/mol:
CGATGCACGTGGGAGG

Relative binding free energy, 0.3 kcal/mol:
GTGCTCACGTGGAATT, ATGCTCACGTGTTCGT

Relative binding free energy, -0.13 kcal/mol:
AGAGGCACGTGTTAGT, TAATCCACGTGGGTTT, CGGAGCACGTGGCTGT

Relative binding free energy, -0.14 kcal/mol:
CGTAACACGTGGGGTG

Relative binding free energy, 0.12 kcal/mol:
TACGTCACGTGTACGT, AGGCTCACGTGGGGTG, GGGGTCACGTGTCGCG, CAGGTCACGTGTAGGG, ATTTACACGTGTATGG, TTTCTCACGTGTAATA

Relative binding free energy, -0.27 kcal/mol:
TTGGGCACGTGGGTAC

Relative binding free energy, 0.13 kcal/mol:
AATTACACGTGGTGAG, ATATTCACGTGTATGT, GTTTACACGTGTGTTT, TTTATCACGTGTAGGG

Relative binding free energy, 0.03 kcal/mol:
GTGGACACGTGGTAGA, AAATGCACGTGATAGT, GATCGCACGTGGAGGT, TTGTGCACGTGGTTCT

Relative binding free energy, 0.17 kcal/mol:
CGTATCACGTGCGGTG, TTGATCACGTGGAATG, ATAGTCACGTGATAGA, ATGAGCACGTGAAGGG, TGGCTCACGTGGGTTT

Relative binding free energy, 0.26 kcal/mol:
ATGTTCACGTGAAAAT, ATGTACACGTGTAAGA, TGTTACACGTGAGTGT

Relative binding free energy, -0.22 kcal/mol:
TAGGCCACGTGGGATT, TTTAGCACGTGGCGGT

Relative binding free energy, -0.1 kcal/mol:
ATGCGCACGTGTTCGG, CAGGGCACGTGGTAGA, CGTGCCACGTGGAGTG, TATTGCACGTGGTCGG, GATAGCACGTGCGTTG, GGTGGCACGTGGCTGG

Relative binding free energy, -0.04 kcal/mol:
TCTGGCACGTGTGTAA, TTTAACACGTGTGTTG, TCTTGCACGTGCGGTG

Relative binding free energy, -0.17 kcal/mol:
GTAGGCACGTGGTACG, AGGAGCACGTGGGTAT

Relative binding free energy, 0.14 kcal/mol:
TGGTGCACGTGAGTTC, ATATTCACGTGGATTA, GGGATCACGTGGGAGC, GAGTACACGTGTGGAT

Relative binding free energy, 0.24 kcal/mol:
TGGTTCACGTGATGCG, TGGATCACGTGAACGG, AGTTACACGTGAATAT, TTGTACACGTGATATC, TGCTTCACGTGGTAGG
